System: COX-2 expression in LPS-stimulated RAW264.7 cells
Assay: COX-2 protein expression (immunoblot) in LPS-stimulated RAW264.7 cells
Format: cell-based
Details: 10, 50 and 100 µM, 2 h pre-treatment then LPS 500 ng/mL for 22 h, band intensity by Image J, duplicate
Description: Cells were washed thrice with cold DPBS, lysed using radioimmunoprecipitation assay buffer (RIPA buffer) supplemented with dithiothreitol (FUJIFILM Wako, Osaka, Japan) and complete™ Mini Protease Inhibitor Cocktail (Roche Diagnostics Corp., Indianapolis, Indiana, USA). Lysates were centrifuged at 13,000 rpm for 20 min at 4 °C, and the supernatant was collected. Total protein was quantified at a concentration of 1 μg/μL. SDS-PAGE was utilized to separate 10 μg of protein per well, and then transferred to a polyvinylidene fluoride (PVDF) membrane. The membrane was blocked with 5% skim milk overnight at 4 °C. Subsequently, the PVDF membrane was incubated at 4 °C for 2 h with primary antibodies against COX-2 and β-actin (Cell Signaling, Danvers, MA, USA), diluted in TBS-T containing 0.1% Tween-20. Following three 15 min washes with TBS-T, the membrane was incubated for 1 h at room temperature with secondary antibodies conjugated with horseradish peroxidase (HRP), specific to the primary antibodies. After another three TBS-T washes, protein detection was carried out using Super Signal® West Femto Substrate (Thermo Fisher, Waltham, MA, USA) and the Fusion Solo Chemiluminescent System (Vilber Lourmat, Eberhardzell, Germany).

Xinghamide A
COX-2 protein expression: concentration-dependent reduction

Reference: paper PMC10608500 (Marine Drugs, 2023)
